Measured values from US9669044B2, “Aminoglycoside and azole compositions and methods” (Utah State University, priority 2010, dated 2017).

Assays:
Set-up in all cases: key: +++, considerable activity; ++, moderate activity; −−−, no activity
[1] = system: Staphylococcus aureus ATCC 6538; experiment: Disk diffusion growth inhibitory assay; conditions: PDA-CA medium
From the text: (§1) TGI, Escherichia coli B, Staphylococcus aureus ATCC 6538, Micrococcus luteus, and Candida albicans ATCC 10231 were obtained from the American Type Culture Collection (Manassas, Va., USA). Fusarium graminearum strain B-4-5A was obtained from the Small Grain Pathology Program, University of Minnesota, Minneapolis Minn., USA. Saccharomyces cerevisiae W303C and Rhodotorula pilimanae were obtained from Dr. J. Y. Takemoto, Utah State University, Logan, Utah, USA). Aspergillus flavus, Fusarium oxysporum, Fusarium culmorum, Microdochium nivale, Mucor haemalis, Ulocladium spp., Penicillium spp., Rhizopus stolonifer and Cladosporium cladosporioides were obtained from Dr. B. Kropp (Utah State University, Logan, Utah, USA) and Aspergillus niger was obtained from Dr. C. Nischwitz (Utah State University, Logan, Utah, USA). Filamentous fungi and yeasts were cultivated at 35° C. in PDB-CA. Bacterial strains were grown at 37° C. for 24 h on Luria-Bertani medium (14) except for Staphylococcus aureus ATCC6538 which was grown on Mueller-Hinton medium (Difco, B D, Franklin Lakes, N.J., USA).
(§2) In vitro antifungal activities were determined by the general methods of the Clinical and Laboratory Standards Institute (NCCLS. Reference method for broth dilution antifungal susceptibility testing of filamentous fungi. Approved standard M38-A (National Committee for Clinical Laboratory Standards, Wayne, Pa., 2002)). For MIC tests, Fusarium graminearum, Rhodotorula pilimanae, and Aspergillus flavus were grown in PDB-CA medium for 48 h at 28° C. with aerobic shaking For disk diffusion growth inhibitory assays, various fungal species were inoculated in the middle of PDA-CA medium plate surfaces. Sterilized paper disks (0.5 cm diameter) were placed on the inoculated agar medium surfaces equidistant and around the fungal inoculum. Eight μL aliquots of test solutions (10 mg mL^−1) were applied to the disks, and the plates were incubated for 24 to 48 h at 28° C. before examination of the inhibition patterns seen as cleared zones of growth inhibition surrounding the disks. Assays for determination of MICs were conducted in sterile, flat-bottomed 96-well microtiter plates (Corning Costar, Corning, N.Y.) in the range of 500 to 1 μg mL^−1. Stock solutions of analogs were prepared at concentrations of 2 mg mL^−1 in water. In microtiter plates, 50 μL aliquots of stock solutions were added in the third column and 10 consecutive two-fold serial dilutions were made in each row with sterile distilled water. Then, 40 μL of PDB-CA medium and 10 μL aliquots of a 100,000 macroconidia per mL fungal suspension were added to each well. Negative (90 μL of growth medium and 10 μL of water) and positive (90 μL of growth medium and 10 μL of culture or macroconidia) controls were placed in separate wells. The microtiter plates were incubated at 28° C. and visually inspected and scored every 24 h. Microbroth dilution assays in a single MIC test were replicated three times, and each test repeated at least twice.

Escherichia coli TG1 = conditions: disk diffusion, PDA-CA medium
From the text: as §1, with “Bacterial strains were grown at 37° C. for 24 h on Luria-Bertani medium (14) except for Staphylococcus aureus ATCC6538 which was grown on Mueller-Hinton medium (Difco, B D, Franklin Lakes, N.J., USA).” left out
(§3) In vitro antifungal activities were determined by the general methods of the Clinical and Laboratory Standards Institute (NCCLS. Reference method for broth dilution antifungal susceptibility testing of filamentous fungi. Approved standard M38-A (National Committee for Clinical Laboratory Standards, Wayne, Pa., 2002)). […] The microtiter plates were incubated at 28° C. and visually inspected and scored every 24 h. […]

Ulocladium spp. = experiment: Disk diffusion growth inhibitory assay; conditions: PDA-CA medium
From the text: as §1, §2

Fusarium oxysporum = experiment: Disk diffusion growth inhibitory assay; conditions: PDA-CA medium
From the text: as §1, §2

Mucor haemalis = experiment: Disk diffusion growth inhibitory assay; conditions: PDA-CA medium
From the text: as §1, §2

[2] = system: Candida albicans ATCC 10231; experiment: Disk diffusion growth inhibitory assay; conditions: PDA-CA medium
From the text: as §1, §2

Rhizopus stolonifer = experiment: Disk diffusion growth inhibitory assay; conditions: PDA-CA medium
From the text: as §1, §2

Rhodotorula pilimanae = experiment: Disk diffusion growth inhibitory assay; conditions: Rhodotorula piliminae, PDA-CA medium
From the text: as §1, §2

[3] = system: Saccharomyces cerevisiae W303C; conditions: disk diffusion, PDA-CA medium
From the text: as §1, with “Bacterial strains were grown at 37° C. for 24 h on Luria-Bertani medium (14) except for Staphylococcus aureus ATCC6538 which was grown on Mueller-Hinton medium (Difco, B D, Franklin Lakes, N.J., USA).” left out
as §3

Measured: Relative Activity (zone of inhibition diameter)

CCCCCCCCS(=O)(=O)OCC1OC(OC2C(N)CC(N)C(OC3OC(CN)C(O)C(O)C3O)C2O)C(O)C(N)C1O (stereo not drawn) [K20, 6″-O-octanesulfonylkanamycin A]
−−−: [1] | Escherichia coli TG1

NCC1O[C@H](OC2C(N)CC(N)[C@@H](OC3O[C@H](CO)C(O)[C@@H](N)[C@H]3O)[C@H]2O)C(O)[C@@H](O)[C@@H]1O (stereo partly drawn) [kanamycin A]
not listed: [1] | Escherichia coli TG1
−−−: all other assays above
